According to PubChem BioAssay AID1508624 (National Center for Advancing Translational Sciences (NCATS), 2021):
Out of some 48,000 compounds screened, about 120 (0.25%) were called active. Roughly 4% stayed inconclusive and do not appear here. The call rests on the fitted dose curve; in most records, active means well fitted activation curve with a large enough effect; inconclusive means small, poorly fitted or top-dose-only effect, or another doubt; inactive means no such curve, though single readings can be large or run the other way. Some of the results follow.

experiment: Primary qHTS for Identification of Small Molecule Activators of Huntingtin-Antisense Promoter Activity; conditions: HEK293 HTT-AS promoter firefly luciferase reporter, 24 h; series mostly up to 57.5 µM; activity change, positive = activation: at the top concentration; further: nearly all actives have a fitted effect of over 55% in size
Summary of the method: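 Quantitative HTS used concentration series of up to 57.5 uM final on HEK293 luciferase reporter cells, 24 h at 37 degrees C. Readout was Dual-Glo firefly luminescence.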

Activity change, positive = activation, inactive:
O=C(NCCC1=CCCCC1)c1ccc2c(c1)N(Cc1ccccc1)C(=O)c1ccccc1S2=O (configuration not stated) -33.8%
CCn1c(SCC(=O)Nc2c(C)cccc2C)nnc1-c1nonc1NC(C)=O -18.3%
Cc1ccc(C(=O)N2CCCCC2CCN2CCCCC2)cc1 (configuration not stated) -3.3%
CSc1nnc2n(-c3cccc(C)c3)c(=O)c3c4c(sc3n12)CCCC4 -0.982%
COc1ccc(S(=O)(=O)c2c(O)c(C)cc(NC(=O)c3ccccc3)c2C(C)C)cc1 -22.3%
CCn1c(=O)n(CC)c2cc(N3CCCC3)c(NC(=O)Nc3cc(C)cc(C)c3)cc21 -42.7%
COc1ccccc1N1CCN(C(=O)c2ccc(Nc3nc4ccccc4n4nnnc34)cc2)CC1 -22.1%
O=C(Nc1ccccc1F)c1oc2ccccc2c1NC(=O)c1c(F)cccc1F -4.81%
Cc1cccn2c(=O)cc(COc3cccc(NC(=O)c4cccc(Cl)c4)c3)nc12 -4.71%
Cc1c(C(=O)Nc2cccc(-c3nc4ccccc4s3)c2)oc2ccc(F)cc12 -6.93%
CCn1c(CN2CCCCC2)nc2cc(NC(=O)c3cccc([N+](=O)[O-])c3)ccc21 -2.51%
COc1cc(-c2nc(C(N)=O)c3c(n2)n(-c2cccc(C)c2)c(=O)n3C)cc(OC)c1OC -14.1%
Cc1ccc(CNC(=O)c2nn(C)c3c2CSc2ccc(C)cc2-3)cc1 -0.246%
N#Cc1cccc(NC(=O)C2CCN(c3nc(-c4ccc(Cl)cc4)no3)CC2)c1 -61.7%
Cc1ccc(CCNC(=O)CSCc2nc(-c3ccc(C)cc3)oc2C)cc1 -19.4%
COC(=O)c1ccccc1NC(=O)c1ccc(=O)n(Cc2cccc(C)c2)c1 -25.5%
CCOc1ccc(-c2nnc(SCC(=O)Nc3cc(C)ccc3OC)o2)cc1 -43.8%
CC(C)c1ccc(NC(=O)Cn2c3ncccc3c(=O)n2-c2ccccc2)cc1 -4.11%
CC(C)c1ccc(OCC(=O)NCC(c2ccc(Cl)cc2)N2CCOCC2)cc1 (configuration not stated) -31.4%
CCOC(=O)C1=C(CN2CCN(C)CC2)NC(=O)NC1c1ccc(F)cc1 (configuration not stated) -9.09%
COc1ccc(N2C(N)=C(C#N)C(c3cc(CN4CCOCC4)cs3)C3=C2CCCC3=O)cc1 (configuration not stated) -2.82%
Cc1nc2c(C(=O)NCCc3ccc(Cl)cc3)cnn2c(C)c1Cc1ccc(F)cc1 -38%
CC(C)NC(=O)C1CCN(C(=O)c2cnn(-c3ccccc3)c2-n2cccc2)CC1 -14.6%
Cc1ccc(NS(=O)(=O)c2ccc3c(c2)C(C(C)C)C(=O)N3)cc1C (configuration not stated) -5.31%
COc1ccc(NS(=O)(=O)c2ccc(-n3cccn3)cc2)cc1OC -89.9%
CCCSc1nc2sc3c(c2c(=O)n1-c1ccc(C)c(Cl)c1)CCN(C(C)=O)C3 -19.8%
COc1nccc(-c2c(-c3ccc(F)cc3)ncn2C2CCNCC2)n1 -17.8%
CN(C(=O)c1cc2nc(-c3ccc4c(c3)OCO4)cc(C(F)(F)F)n2n1)c1ccc(OC(F)(F)F)cc1 5.21%
Cn1nc(C(=O)NCCc2ccc(Cl)cc2)c2c1-c1ccccc1SC2 -9.11%
CN(Cc1ccccc1)C(=O)CSc1nc(-c2ccc(F)cc2)cc(C(F)(F)F)n1 -37%
O=C(Nc1nnc(S(=O)(=O)N2CCc3ccccc32)s1)c1cccc(Cl)c1 -81%
CCCC(CCC)C(=O)NC1CC(=O)N(c2ccc3c(c2)OCCO3)C1 (configuration not stated) -19.4%
Cc1ccc(/C=C(\C#N)c2nc3ccccc3c(=O)[nH]2)cc1 -11.4%
COc1ccc(NC(=O)C2CCCN(c3nnc(C)c4c(C)n(-c5ccccc5)nc34)C2)cc1Cl (configuration not stated) -36.9%
COCCOC(=O)c1c(-c2ccccc2)c(-c2ccccc2)nn(C)c1=O -11.4%
CCOc1ccc(CC(=O)Nc2c(C(=O)c3ccccc3)oc3ccc(OC)cc23)cc1OCC -7.37%
CCc1ccccc1NC(=O)Cn1c(=O)n(Cc2ccc(OC)cc2)c(=O)c2oc3ccccc3c21 -7.16%
COc1cc2c(Oc3ccc4[nH]c(C)cc4c3F)ncnc2cc1OCCCN1CCCC1 -24.5%
CC(C)c1ccc(N2C(=O)CSC23C(=O)N(Cc2ccccc2)c2ccccc23)cc1 (configuration not stated) -0.804%
Cc1cc(NS(=O)(=O)c2ccc3oc(=O)c4ncn(C)c4c3c2)ccc1Br -34.9%
Cc1ccc(NC(=O)Cn2c(=O)n(Cc3nc(C)no3)c(=O)c3cc4c(cc32)OCO4)cc1 -16.6%
COc1ccc(NC(=O)N2CCN(S(=O)(=O)c3ccc4c(ccn4C)c3)CC2)c(OC)c1 -20.5%
COc1cccc(CNC(=O)C(C)n2c(=O)cc(-c3ccccc3)c3c(C)nn(C)c32)c1 (configuration not stated) -14.7%
COc1ccccc1N1CCN(C(=O)c2cnn(-c3ccc(F)cc3F)c2C2CCNCC2)CC1 -13.8%
Cc1ccc(Nc2nnc(-c3ccc(C)c(S(N)(=O)=O)c3)c3ccccc23)cc1 -42.2%
COc1cccc(C(=O)Nc2ccc3oc(-c4cccc5c(Br)cccc45)nc3c2)c1 -8.86%
COc1cccc2c1C(=O)c1c(O)c3c(c(O)c1C2=O)C[C@@](O)(C(=O)CO)C[C@@H]3O[C@H]1C[C@H](N)[C@H](OC2CCCCO2)[C@H](C)O1 (some centres not stated) -34.2%
CCc1ccccc1N(C)C(=O)c1ccc2c(=O)n3c(nc2c1)CCCCC3 -17.6%
COc1ccc(S(=O)(=O)NCC(c2ccc(N(C)C)cc2)N2CCc3ccccc32)cc1OC (configuration not stated) -2.55%
Cc1cccc(OCC(=O)Nc2cccc3cccnc23)c1C 7.2%
COc1ccc(N2CCN(C(=O)CCc3c(C)nc4cc(-c5ccc(OC)cc5OC)nn4c3C)CC2)cc1 -22.8%
CCOC(=O)c1c(NC(=O)c2ccccc2OCC)sc2c1CCC(CC)C2 (configuration not stated) 6.07% [at 11.5 µM, percent change from vehicle, -100% = no light]
CN(C)S(=O)(=O)c1ccc(C(=O)NCCSc2c(-c3ccc(Cl)cc3)[nH]c3ccccc23)cc1 -27.8%
O=C(CSc1nc(-c2ccc(F)cc2)[nH]c1-c1ccc(F)cc1)Nc1ccc2c(c1)OCCO2 -33.3%
Cc1ccc(C)c(N2CCN(C(=O)c3cnn(-c4ccccc4Cl)c3C3CCN(C(=O)OC(C)(C)C)CC3)CC2)c1 -47.4%
COc1ccc(Cc2nc3ccc(C(=O)NCc4ccccc4Cl)cc3o2)cc1 -17.6%
CCOc1ccc(CC(=O)NCC(c2cccs2)S(=O)(=O)c2ccc(F)c(C)c2)cc1 (configuration not stated) -7.41%
